Measurements from patent US20260265334A1, “STAPLED PEPTIDES” (THE FLOREY INSTITUTE OF NEUROSCIENCE AND MENTAL HEALTH, priority 2023, published 2026).
For some assays here: At least one peptide structure holds a part that was inferred or is arguable (an end, a ring closure or a residue). For at least one compound, name, drawing or mass did not settle the structure. Each block holds one compound with its values, some of them ahead of it. Numbered stars: 1 amine (or outer) side, 2 acyl side, 3 side chain; on linkers, the order of the positions; unused ones are H or OH. Bridge positions count the residues as written; N and C are the ends. Square brackets hold non-standard residues; d marks the D form. Ends that are not written are not given here. Peptide text beside a SMILES is read from it. αMeF = C[C@](N)(Cc1ccccc1)C(=O)O; CH2COCH2 = O=C(C[*:1])C[*:2]; S5 = C=CCCC[C@](C)(N)C(=O)O; αMeC = C[C@](N)(CS)C(=O)O

Key:
[1] = molecular target: T1, RXFP3 (Homo sapiens, UniProt Q9NSD7); assay: Eu-H3B1-22R competition binding assay in CHO-K1-RXFP3 cells; conditions: CHO-K1-RXFP3 cells; Table 6
T1 construct: expressed in transfected cells
T1 sequence (Q9NSD7 1-469): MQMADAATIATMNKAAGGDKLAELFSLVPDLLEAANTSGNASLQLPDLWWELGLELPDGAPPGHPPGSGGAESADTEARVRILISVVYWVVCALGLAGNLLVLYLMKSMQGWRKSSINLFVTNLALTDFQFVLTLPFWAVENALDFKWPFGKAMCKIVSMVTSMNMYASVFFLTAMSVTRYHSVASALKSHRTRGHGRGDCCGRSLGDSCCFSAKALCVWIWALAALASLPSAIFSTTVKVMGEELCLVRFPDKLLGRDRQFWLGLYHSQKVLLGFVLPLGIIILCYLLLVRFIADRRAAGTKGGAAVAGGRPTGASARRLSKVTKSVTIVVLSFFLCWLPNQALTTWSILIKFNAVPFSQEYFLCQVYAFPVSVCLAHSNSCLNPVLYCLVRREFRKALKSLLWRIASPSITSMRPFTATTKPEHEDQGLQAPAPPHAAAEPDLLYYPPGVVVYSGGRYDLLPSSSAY
Description: An Eu-H3B1-22R competition binding assay was conducted in CHO-K1-RXFP3 cells.
(§1) Competition binding curves for each peptide were performed in triplicate and each experiment was performed independently at least three times. Fluorescent measurements were carried out at excitation of 340 nm and emission of 614 nm on a BMG POLARstar plate reader (BMG Labtech, Melbourne, Australia). Pooled data were presented as mean±S.E.M. of specific binding and are fitted using a one-site binding curve in GraphPad Prism version 8 (GraphPad Inc., San Diego, USA). Statistical analyses were conducted using one-way analysis of variance with uncorrected Fisher's least significant difference (LSD) post-hoc analysis in GraphPad Prism version 9.
(§2) Competition binding and cAMP activity assay were conducted by a procedure analogous to that described above for Example 3. The results are shown in FIG. 24 (RXFP3) and FIG. 25 (RXFP4).

[2] = molecular target: T2, RXFP4 (Homo sapiens, UniProt Q8TDU9); assay: Inhibition of forskolin-induced cAMP activity in CHO-K1-RXFP4 cells (pCRE β-galactosidase reporter); type: cell-based; parameters: expressed in transfected cells; conditions: RXFP4; Table 5
Description: For agonist assays, cells were stimulated with forskolin (5 μM for RXFP3, 1 μM for RXFP4)±increasing concentrations of each peptide for 6 hours. Data were expressed as the % forskolin activity, whereby 100% was defined as forskolin alone and 0% as maximum agonist stimulation (1 μM Analogue 2 for RXFP3 and 1 μM Analogue 13 for RXFP4). Data were analysed and plotted using GraphPad Prism 9 and are expressed as the mean±SEM of the pooled data. Statistical analysis was conducted using one-way ANOVA with Uncorrected Fisher's LSD post-hoc analysis using GraphPad Prism 9.
(§3) An additional analogue of INSL5 was utilised as a control, INSL5-A13, having an A chain (SEQ ID NO: 9) and a B chain (SEQ ID NO: 10) with a first disulfide bond between Cys 1 of the A chain and Cys 7 of the B chain, and a second disulfide bond between Cys 14 of the A chain and Cys 19 of the B chain:
as §2

[3] = molecular target: T2, RXFP4; assay: Eu-R3/I5 competition binding assay in CHO-K1-RXFP4 cells; parameters: expressed in transfected cells
Description: An Eu-R3/15 competition binding assay in CHO-K1-RXFP4 cells was carried out.
as §1, §3, §2

[4] = molecular target: T2, RXFP4; assay: SmBiT-R3/I5 NanoBiT competition binding assay, HEK-LgBiT-RXFP4 membrane fractions; parameters: expressed in transfected cells; conditions: RXFP4, 2 nM SmBiT-R3/I5; Table 5
Description: Furthermore, a SmBiT-R3/15 competition binding assay was performed. All peptides were examined for their binding affinity to RXFP4 utilizing a competition NanoLuc® Binary Technology (NanoBiT™) binding assay. Briefly, HEK-LgBiT-RXFP4 crude membrane fractions (25 μg protein) were incubated with 2 nM SmBiT-R3/15 and increasing concentrations of competing peptides in binding buffer (0.5% BSA, 20 mM HEPES pH 7.5, 1.5 mM CaCl2), 50 mM NaCl) in a total of 100 μL in 96-well Optiplates (PerkinElmer, Waltham MA, USA). After 1 hour of shaking at room temperature, 1.25 μM final concentration of coelenterazine 400a was added, and luminescence measurements were recorded using a MicroBeta Microplate Counter (PerkinElmer, Waltham MA, USA). Each concentration-response curve was tested in triplicate, and each experiment was repeated at least three times with data being expressed as the mean±standard error of the mean (S.E.M) % specific.

[5] = test system: adult, male rats; assay: Chow consumption after icv infusion in rats (RXFP3 agonist); type: in vivo, rat; conditions: 120 min
[6] = test system: adult rats; assay: Effect of RXFP3 antagonist on agonist-induced chow consumption in rats; type: in vivo, rat; conditions: 1 nmol icv, satiated rats, n=10; p=0.001
[7] = test system: in situ perfused rat brainstem preparation; assay: Respiratory rate and arterial chemoreceptor reflex in in situ perfused rat brainstem preparation; conditions: 2 μM in perfusate
[8] = test system: mouse model of inflammatory persistent pain; assay: CFA model of inflammatory persistent pain; type: in vivo
Description: Pilot studies were conducted in a mouse model of inflammatory persistent pain obtained by intraplantar injection of Complete Freund's Adjuvant (CFA). […] The effect is maximal at 30 minutes after the injection and vanished after 1 hour. The same result has been obtained in a rat CFA model with a similar time course of the antinociceptive effect.

[9] = molecular target: T2, RXFP4; assay: NanoBRET β-arrestin2 recruitment assay, RXFP4-NLuc / Venus-β-arrestin2 in HEK293T cells; type: cell-based; parameters: expressed in transfected cells; host or cells: HEK293T (transient, Lipofectamine 2000, pcDNA3.1/Zeo(+)); conditions: vs R3/I5
Description: The inventors assessed if H3B10-27(13/17αF) retained the ability to recruit β-arrestin2 and therefore display full agonist activity at RXFP3 and RXFP4, in comparison to Peptide 5.
For NanoBRET β-arrestin2 recruitment assays, HEK293T cells were plated onto a six-well plate, and were transfected the following day with β-arrestin2-Venus and either RXFP3-Nluc or RXFP4-Nluc, in the pcDNA3.1/Zeo(+) vector, using Lipofectamine 2000. The next day, cells were washed with DPBS and resuspended in complete media containing 25 mM HEPES but no phenol red, and were seeded into a 96-well CulturPlate (PerkinElmer). The next day, prior to the assay, cells were pre-incubated in phenol red free media with NLuc substrate, 5 μM coelenterazine 400a for RXFP3-nLuc and 5 μM coelenterazine h for RXFP4-NLuc (both from Nanolight, Pinetop, AZ, USA) to establish a baseline, before addition of ligand or vehicle. Emissions were detected simultaneously using a PHERAstar FSX plate reader (BMG Labtech) with 450/80 nm and 535/30 nm filters. Ligand-induced BRET ratio was calculated by subtracting the ratio of 535/30 nm emissions to 450/80 nm emissions for vehicle from the same ratio for ligand-treated wells. […] Data are representative of 3-5 experiments performed in duplicate and concentration-response curves were fit to data by applying non-linear regression to area under the curve of time-course data, using GraphPad Prism 9.

[10] = intra-cerebroventricular injection, CFA model

Compound: SGRFFIRFVIFTSR [H3B10-22R13/17FF]
- RXFP3 Eu-H3B1-22R pKi (n) [1]: 6.67 ± 0.54 (3)

Compound: CC[C@H](C)[C@H](NC(=O)[C@H](Cc1ccc(O)cc1)NC(=O)[C@@H](NC(=O)[C@@H](NC(=O)[C@]1(C)CCCC=CCCC[C@](C)(NC(=O)[C@H](CC(C)C)NC(=O)CNC(=O)[C@H](CO)NC(C)=O)C(=O)N[C@@H](Cc2ccc(O)cc2)C(=O)N[C@@H]([C@@H](C)CC)C(=O)N[C@@H](CCCNC(=N)N)C(=O)N1)C(C)C)[C@@H](C)CC)C(=O)N[C@@H](CO)C(=O)NCC(=O)N[C@@H](C)C(=O)N[C@@H](CO)C(=O)N[C@@H](CCCNC(=N)N)C(=O)N[C@@H](Cc1c[nH]c2ccccc12)C(=O)O [Hydrocarbon stapled analogue] (Ac-SGL[S5]YIR[S5]VIYISGASRW-OH; staple 4-8; C-terminus assumed)
- SmBiT R3/I5 pKi [4]: 6.81 ± 0.14(3)
- cAMP pEC50 [2]: 6.18 ± 0.15 (3)

Compound: CC[C@H](C)[C@@H]1NC(=O)[C@H](Cc2ccccc2)NC(=O)[C@H](CCC(=O)O)NC(=O)[C@H](CCCNC(=N)N)NC(=O)CNC(=O)[C@@H](NC(=O)[C@H](CC(C)C)NC(=O)[C@H](CCCNC(=N)N)NC(=O)[C@@H](NC(=O)CNC(=O)[C@H](Cc2ccc(O)cc2)NC(=O)[C@@H]2CCCN2C(=O)[C@H](C)NC(=O)[C@H](C)NC(=O)[C@@H](N)CCCNC(=N)N)C(C)C)CSSC[C@@H]2NC(=O)[C@@H](NC(=O)[C@H](CO)NC(=O)[C@H](CO)NC(=O)[C@H](CO)NC(=O)[C@H](CC(C)C)NC(=O)CNC(=O)[C@H](C)NC(=O)[C@H](CC(C)C)NC(=O)[C@@H](NC(=O)[C@@H](N)CC(=O)O)C(C)C)CSSC[C@H](NC(=O)CNC(=O)[C@H](Cc3c[nH]c4ccccc34)NC(=O)[C@H](CCCCN)NC2=O)C(=O)N[C@@H](CO)C(=O)N[C@@H](CCCCN)C(=O)N[C@@H](CO)C(=O)N[C@@H](CCC(=O)O)C(=O)N[C@@H]([C@@H](C)CC)C(=O)N[C@@H](CO)C(=O)N[C@@H](CO)C(=O)N[C@@H](CC(C)C)C(=O)N[C@H](C(=O)O)CSSC[C@@H](C(=O)NCC(=O)NCC(=O)N[C@@H](CO)C(=O)N[C@@H](CCCNC(=N)N)C(=O)N[C@@H](Cc2c[nH]c3ccccc23)C(=O)O)NC(=O)[C@H]([C@@H](C)O)NC(=O)[C@H](Cc2ccccc2)NC(=O)[C@H]([C@@H](C)CC)NC(=O)[C@H](C(C)C)NC(=O)[C@H](C)NC(=O)[C@H](CCCNC(=N)N)NC1=O [H3 relaxin]
- Eu-R3/I5 pKi ([3]; RXFP4, CHO-K1-RXFP4 cells, 5 nM Eu-R3/I5, Table 3): 8.42 ± 0.19 (4)

Compound: SGREFIRAVIFTSR [H3B10-22R13/17EA]
- RXFP3 Eu-H3B1-22R pKi (n) [1]: 6.08 ± 0.10 (3)

Second part, led by results:

- cAMP pEC50 [2]: 6.29 ± 0.03 (3)
- Eu-R3/I5 pKi ([3]; RXFP4, Table 5): <5 (3)
Compound: CC[C@H](C)[C@H](NC(=O)[C@H](Cc1ccc(O)cc1)NC(=O)[C@@H](NC(=O)[C@@H](NC(=O)[C@]1(C)CSCC(=O)CSC[C@](C)(NC(=O)[C@H](CC(C)C)NC(=O)CNC(=O)[C@H](CO)NC(C)=O)C(=O)N[C@@H](Cc2ccc(O)cc2)C(=O)N[C@@H]([C@@H](C)CC)C(=O)N[C@@H](CCCNC(=N)N)C(=O)N1)C(C)C)[C@@H](C)CC)C(=O)N[C@@H](CO)C(=O)NCC(=O)NCC(=O)N[C@@H](CO)C(=O)N[C@@H](CCCNC(=N)N)C(=O)N[C@@H](Cc1c[nH]c2ccccc12)C(=O)O [Thioacetal stapled analogue] (Ac-SGL[αMeC]YIR[αMeC]VIYISGGSRW-OH; linker 4-8 via CH2COCH2)

- cAMP pEC50 [2]: <5 (4)
Compound: SGLEYIRTVIYISGGSRW-OH [Linear B-chain, S-G-L-E-Y-I-R-T-V-I-Y-I-S-G-G-S-R-W-OH]

- arterial chemoreceptor reflex-mediated tachypnea, tachypneic PN bursts after application ([7]; NaCN stimulus, control 4.0±0.4, n=6): 7.8±0.5 PN bursts
- phrenic nerve activity (PNA) burst rate after systemic application ([7]; baseline 17.8±1.6, n=6): 23.0±2.9 PNA-bursts/min
- increase of phrenic nerve activity ([7]; p=0.014, n=6): 27.7±5.4%
- fold less potent than R3/I5 in RXFP4 β-arrestin2 recruitment [9]: 100 fold
Compound: CC[C@H](C)[C@H](NC(=O)[C@H](Cc1ccccc1)NC(=O)[C@](C)(Cc1ccccc1)NC(=O)[C@H](CCCNC(=N)N)NC(=O)CNC(=O)[C@@H](N)CO)C(=O)N[C@@H](CCCNC(=N)N)C(=O)N[C@@](C)(Cc1ccccc1)C(=O)N[C@H](C(=O)N[C@H](C(=O)N[C@@H](Cc1ccccc1)C(=O)N[C@H](C(=O)N[C@@H](CO)C(=O)NCC(=O)NCC(=O)N[C@@H](CO)C(=O)N[C@@H](CCCNC(=N)N)C(=O)N[C@@H](Cc1c[nH]c2ccccc12)C(=O)O)[C@@H](C)O)[C@@H](C)CC)C(C)C [H3B10-27(13/17αF)] (H-SGR[αMeF]FIR[αMeF]VIFTSGGSRW-OH)
- food intake relative to aCSF ([5]; 0.1 nmol icv, p=0.077): trend towards increased food intake
- food intake relative to aCSF ([5]; 0.5, 1 and 4 nmol icv): significant, dose-dependent increases in food intake
- chow consumption relative to aCSF vehicle [6]: significantly increased chow consumption
- analgesia after local injection ([8]; injected in Anterior Cingulate Cortex or Baso-Lateral Amygdala, contralateral to CFA injected paw): mechanical (von Frey test) and thermal (plantar test) analgesia
- time after which the antinociceptive effect vanished [8, 10]: 1 h
- time of maximal antinociceptive effect after the injection [8, 10]: 30 min
- antinociceptive effect after intra-cerebroventricular injection ([8]; mouse CFA model, same result in a rat CFA model): dose-dependent antinociceptive effects

- RXFP3 Eu-H3B1-22R pKi (n) [1]: 7.64 ± 0.09 (4)
Compound: H-RAAPYGVRLSGREFIRAVIFTSR-OH [H3B1-22R]
